Results published in PubChem BioAssay AID540317 (National Center for Advancing Translational Sciences (NCATS), 2011).
In all, about 390,000 compounds went through this assay and about 2,200 (0.56%) were called active. This list was built around the results that the source calls inconclusive (neither active nor inactive); the mix of calls is not that of the screen. The call rests on the fitted dose curve; in most records, active means well fitted inhibition curve with a large enough effect; inconclusive means small, poorly fitted or top-dose-only effect; inactive means no such curve, though single readings can be large or run the other way. A potency beside an inconclusive call is a rough fit, not a confirmed value. The source holds several records for some structures; these can differ, active in one and inactive in another.

target: Chromobox protein homolog 1 (Homo sapiens) (UniProt P83916); experiment: HTS for Inhibitors of HP1-beta Chromodomain Interactions with Methylated Histone Tails; details: AlphaScreen HP1-beta / biotin-H3K9me3 peptide binding; series mostly up to 114 µM; activity change, negative = inhibition: at the top concentration; further: nearly all actives have a fitted effect of over 70% in size
Sequence of UniProt P83916 (P83916 whole entry, looked up): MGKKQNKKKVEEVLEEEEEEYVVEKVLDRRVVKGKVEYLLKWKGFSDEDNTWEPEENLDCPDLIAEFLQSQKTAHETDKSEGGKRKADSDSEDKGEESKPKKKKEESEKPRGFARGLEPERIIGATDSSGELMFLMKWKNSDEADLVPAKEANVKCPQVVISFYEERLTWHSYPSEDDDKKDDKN
Outline: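 Compound inhibition of the preformed complex between 50 nM HP1-beta and 50 nM biotinylated H3K9me3 peptide was read by AlphaScreen. Buffer was PBS pH 7.4 with 0.01% Tween-20. Incubations ran 30 min at room temperature, with 10 ug/mL donor/acceptor beads.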
Potency means the concentration at half of the fitted maximal effect; tags describe the fitted curve by direction and shape.

Row | SMILES | activity change, negative = inhibition | Potency
1 | O=C(O)c1ccc(Cn2cc(/C=C\[N+](=O)[O-])c3ccccc32)o1 | inactive: 5.91% | 
2 | Cc1ccc(/C=N/n2c(COc3ccccc3)n[nH]c2=S)o1 | inactive: -2.94% | 
3 | Cn1/c(=N/N=C/c2ccccn2)sc2ccccc21 |  | inconclusive: 70.8 µM [inhibitor, partial curve]
4 | CN(C)c1ccc(C=NNC(=S)Nc2ccc(F)cc2)cc1 |  | inconclusive: 17.8 µM [inhibitor, full curve]
5 | O=C(Oc1ccc(C(=S)N2CCOCC2)cc1)c1cccc(Cl)c1 |  | inconclusive: 39.8 µM [inhibitor, partial curve]
6 | COc1ccc(NCc2cc3cc(OC)ccc3[nH]c2=O)cc1 |  | inconclusive: 7.08 µM [inhibitor, full curve, poor fit]
7 | Cc1csc(NC(=O)c2cc([N+](=O)[O-])cc([N+](=O)[O-])c2)n1 |  | inconclusive: 28.2 µM [inhibitor, single point]
8 | CNc1nc(-c2ccccc2)[n+](-c2ccc(C)cc2)s1 |  | active: 11.2 µM
9 | Cc1c(C)c2c(cc(C)c3c(-c4ccc(Br)cc4)coc32)oc1=O | inactive: -5.88% | 
10 | CCCOC(=O)CCCN1C(=O)/C(=C2\SC(=S)N(CCCC(=O)OCCC)C2=O)SC1=S |  | inconclusive: 2.51 µM [inhibitor, full curve, poor fit]
11 | Cc1ccc(NC(=S)NCc2ccc3c(c2)cc(C)n3C)c(C)c1 |  | inconclusive: 7.94 µM [inhibitor, partial curve, poor fit]
12 | COc1ccccc1NCc1ccc([N+](=O)[O-])s1 |  | inconclusive: 50.1 µM [inhibitor, single point]
13 | COc1ccc(C(=O)Nc2nc(C)cc(C)n2)cc1[N+](=O)[O-] | inactive: 35.6% | 
14 | CC(=NNC(=S)N1CC2CCC(CC2)C1)c1cccc(C)n1 |  | inconclusive: 15.8 µM [inhibitor, partial curve, poor fit]
15 | CCOC(=O)c1c(C)[nH]c(C)c1S(=O)(=O)NCC(=O)Nc1cccc(SC)c1 |  | inconclusive: 79.4 µM [inhibitor, partial curve, poor fit]
16 | O=C(CSc1nnc(-c2ccccc2)n1-c1ccc(Cl)cc1)N/N=C/c1ccco1 |  | inconclusive: 31.6 µM [inhibitor, single point]
17 | Cc1cc(NC2CCCCC2)nc(-c2ccccc2O)n1 |  | inconclusive: 15.8 µM [inhibitor, single point]
18 | CCOC(=O)c1cc2c(C)n(-c3ccc(C)cc3)c(C)c2ccc1=O |  | inconclusive: 56.2 µM [inhibitor, partial curve, poor fit]
19 | COC(=O)CCC(=O)OC1(C)C(=O)C2=CN(Cc3ccccc3)C(c3ccc(OC)cc3)=CC2=C(Br)C1=O (centres undefined) |  | inconclusive: 17.8 µM [inhibitor, full curve]
20 | Cc1ccc(C(=O)Nc2ccc(Cl)cc2C)c(Cl)c1 | inactive: 8.36% | 
21 | O=C(CNCc1cccs1)Nc1ccc(S(=O)(=O)N2CCCCC2)cc1 |  | inconclusive: 14.1 µM [inhibitor, full curve, poor fit]
22 | Clc1ccc(-c2nnc(N3CCCC3)nn2)cc1 |  | inconclusive: 3.98 µM [inhibitor, full curve]
23 | CN(C)c1ccc(C(=S)NC2CCCCC2)cc1 |  | inconclusive: 8.91 µM [inhibitor, full curve, poor fit]

Row | SMILES | activity change, negative = inhibition | Potency
24 | Cc1nn(C(C)C(=O)N2CCN(c3ccc(F)cc3)CC2)c(=O)c2c1sc1ccccc12 (centres undefined) | inactive: 8.42% | 
25 | Cc1cc(NC(=O)CN2CCCCCCC2)no1 |  | inconclusive: 79.4 µM [inhibitor, single point]
26 | Cc1cccc(Nc2nc3c(s2)CCCC3)c1 |  | inconclusive: 14.1 µM [inhibitor, full curve, poor fit]
27 | CC(C)CN(C(=O)COC(=O)c1ccc2c(c1)NC(=O)CS2)C1CCS(=O)(=O)C1 (centres undefined) |  | inconclusive: 79.4 µM [inhibitor, single point]
28 | COc1cc(C(=S)N2CCOCC2)cc(OC)c1OC(=O)c1ccc(F)cc1 |  | inconclusive: 17.8 µM [inhibitor, full curve]
29 | COc1ccc(OC)c(CN2CCN(C(=O)c3cccc(S(=O)(=O)Nc4ccc(C)cc4)c3)CC2)c1 |  | inconclusive: 50.1 µM [inhibitor, partial curve]
30 | C=CCN(CC=C)C(=O)Nc1cc(OC)ccc1OC |  | inconclusive: 89.1 µM [inhibitor, partial curve, poor fit]
31 | CCOC(=O)C1CCN(CC(C)(C)NS(=O)(=O)c2ccc(Cl)cc2)CC1 |  | active: 79.4 µM
32 | Cc1ccc(Cl)cc1NC1=C/C(=N\S(=O)(=O)c2cccs2)c2ccccc2C1=O |  | active: 3.98 µM
33 | CCCCCCCc1ccc(-c2ccc(O)cc2)nc1 |  | inconclusive: 39.8 µM [inhibitor, single point]
34 | Cc1cc(N(CCO)CCO)ccc1N=Nc1cc(F)ccc1F |  | inconclusive: 50.1 µM [inhibitor, partial curve, poor fit]
35 | COCCCNC(=S)N/N=C/c1ccc(OC)cc1 | inactive: 20.9% | 
36 | Cc1nn(CCc2nc(-c3ccco3)cs2)c2[nH]c(=O)cc(C(F)(F)F)c12 |  | inconclusive: 15.8 µM [inhibitor, single point]
37 | Cc1cc(C(=O)CSc2nc(N)cc(N)n2)c(C)n1-c1cccc(F)c1 |  | inconclusive: 56.2 µM [inhibitor, single point]
38 | O=C(c1cccc(Cl)c1)N1CCN(CCCc2ccccc2)CC1 |  | inconclusive: 56.2 µM [inhibitor, partial curve, poor fit]
39 | Cc1ccc(C(=O)/C=C/c2ccco2)c(O)c1 |  | inconclusive: 50.1 µM [inhibitor, partial curve, poor fit]
40 | COc1cccc(CNC(=O)C2CCCN(c3nnc(-n4c(C)ccc4C)s3)C2)c1OC (centres undefined) | inactive: 5.03% | 
41 | Cc1ccccc1N=Nc1c(O)n(C)c2ccccc12 | inactive: 25.7% | 
42 | COc1cccc2c1C(=O)c1c(O)c3c(c(O)c1C2=O)CC(O)(C(C)=O)CC3OC1CC(O)C(O)C(C)O1 (centres undefined) |  | inconclusive: 56.2 µM [inhibitor, partial curve, poor fit]
43 | COc1ccc(S(=O)(=O)c2c(Nc3cccc(Cl)c3)sc(C(=O)c3ccccc3)c2N)cc1 | inactive: 11.4% | 
44 | O=C(Nc1ccc(N2C(=O)c3cccc4cccc(c34)C2=O)cc1)c1ccc(N2CCCCC2)c([N+](=O)[O-])c1 |  | inconclusive: 35.5 µM [inhibitor, single point]
45 | Cc1ccc(/C=N/n2c(-c3ccccn3)n[nH]c2=S)o1 |  | inconclusive: 89.1 µM [inhibitor, single point]
46 | N#Cc1c(N)nc2c(c1-c1ccc3c(c1)OCO3)CCCCCC2 | inactive: 18.2% | 

Row | SMILES | activity change, negative = inhibition | Potency
47 | CN1CCN(c2ccc(NC(=O)c3cccc(OCc4ccccc4)c3)cc2)CC1 | inactive: -3.63% | 
48 | C=C(C)C(=O)OCCCCCCOc1ccc(C(=O)O)cc1 |  | inconclusive: 17.8 µM [inhibitor, full curve, poor fit]
49 | CCOC(=O)c1c(-c2ccccc2)csc1NC(=O)CCN1CCOCC1 |  | inconclusive: 15.8 µM [inhibitor, full curve, poor fit]
50 | CC1(OC(=O)C2CCCC2)C(=O)C=C2C=C(c3ccsc3)OC=C2C1=O (centres undefined) |  | inconclusive: 44.7 µM [inhibitor, partial curve]
51 | CCOC(=O)c1sc(=S)n(-c2ccccc2OC)c1N |  | inconclusive: 28.2 µM [inhibitor, full curve, poor fit]
52 | O=C(O/N=C\c1ccc(N2CCCCC2)c([N+](=O)[O-])c1)c1cccc(C(F)(F)F)c1 |  | inconclusive: 15.8 µM [inhibitor, partial curve, poor fit]
53 | COc1cccc(C2CC(=O)Nc3cc4c(cc32)OCCO4)c1OC(C)C (centres undefined) |  | inconclusive: 89.1 µM [inhibitor, single point]
54 | N[C@@H](Cc1ccccc1)c1nnc(SC/C=C/c2ccccc2)o1 | inactive: 28.8% | 
55 | COc1ccc(N2Cc3cccc(C(=O)O)c3C2=O)cc1 |  | inconclusive: 25.1 µM [inhibitor, full curve]
56 | O=C(Cc1sc(Nc2ccccc2)nc1-c1ccccc1)NCc1ccccc1 |  | inconclusive: 28.2 µM [inhibitor, partial curve, poor fit]
57 | O=C(CSc1nc2ccccc2s1)Nc1ccc(Cl)c(S(=O)(=O)N2CCOCC2)c1 | inactive: 16.9% | 
58 | CCn1c(C)c(C2=CCN(S(=O)(=O)c3ccccc3)CC2)c2ccccc21 |  | inconclusive: 25.1 µM [inhibitor, single point]
59 | CCCNC(=O)c1ccc(Cl)c(Cl)c1 |  | inconclusive: 39.8 µM [inhibitor, partial curve, poor fit]
60 | COc1cccc(-n2nnnc2SCC(=O)c2ccc(NC(C)=O)cc2)c1 | inactive: 28.6% | 
61 | Cc1c(C(=O)N(Cc2ccccc2)C2CCS(=O)(=O)C2)oc2ccccc12 (centres undefined) | inactive: 19.1% | 
62 | Cc1ccc(S(=O)(=O)n2nc(-c3ccco3)nc2N)cc1 | inactive: 20% | 
63 | Cc1ccc(/C=N/n2c(C)nnc2C)s1 |  | inconclusive: 39.8 µM [inhibitor, single point]
64 | Brc1ccccc1CN1CCN(Cc2c[nH]c3ccccc23)CC1 |  | active: 39.8 µM
65 | CCOc1cc(N2CCOCC2)c(OCC)cc1NC(=O)CN1CCc2ccccc2C1 |  | inconclusive: 14.1 µM [inhibitor, full curve, poor fit]
66 | CC(C)(C)C1CCc2[nH]c3ccccc3c(=O)c2C1 (centres undefined) | inactive: 25.7% | 
67 | COc1cc(N2N=C(c3ccccc3)CC2c2ccccc2)c(C=O)cc1C=O (centres undefined) | inactive: 89.5% | 
68 | CC(C)C[C@@H](CN=[N+]=[N-])N1CCN(CC(C)C)CCC1=O |  | inconclusive: 35.5 µM [inhibitor, single point]
69 | O=C(Cc1ccccc1)Nc1ccccc1C(=O)N1CCN(c2ccccc2)CC1 | inactive: 26.5% | 
